Data taken from the supplement of paper PMC4166925.
± gives the standard deviation of the averaged measurements. In all, about 33,000 sequences were measured (“E-score (dimensionless, -0.5 to 0.5)”: median about -0.046, highest 2% from about 0.36 on). The list shows a part of the results.

Tested on: T1, SpTbr T-box DNA-binding domain (GST fusion)
T1 sequence: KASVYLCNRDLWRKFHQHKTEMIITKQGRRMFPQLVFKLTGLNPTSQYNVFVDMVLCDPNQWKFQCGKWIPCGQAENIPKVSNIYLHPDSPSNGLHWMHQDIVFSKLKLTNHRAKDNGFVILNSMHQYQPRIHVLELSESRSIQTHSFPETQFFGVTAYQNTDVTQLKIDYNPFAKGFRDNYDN
Experiment: PBM E-score of 8-mer (E-score (dimensionless, -0.5 to 0.5)); Tbr is Tbrain of the sea star Patiria miniata (Pm) or the sea urchin Strongylocentrotus purpuratus (Sp); higher = stronger binding preference; most listed sequences are background and not binding sites
Conditions: the construct has about 5 more residues each side
Procedure, shortened: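 Using the Universal PBM Analysis Suite, every ungapped 8-mer received an enrichment E-score averaged over duplicate arrays. Probe intensities came from double-stranded Universal Agilent oligonucleotide arrays incubated with 200 nM GST-fused Tbr T-box DNA-binding domain in PBS (pH 7.5). That protein was expressed in BL21 E. coli at 20 °C and purified by glutathione affinity chromatography.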

Sequence	PBM E-score of 8-mer
ATTGGGTG	0.204 ± 0.019
ATTTTGCC	-0.225 ± 0.032
CATCGTGG	0.0693 ± 0.016
ACCGTGGG	-0.107 ± 0.0042
TGCAGTAA	0.0597 ± 0.014
GTCCGGAA	-0.29 ± 0.012
ACTAGGCA	-0.204 ± 0.036
AGGTCGCA	0.273 ± 0.024
AGGAGGGA	-0.0901 ± 0.053
GTTTCAAA	-0.327 ± 0.079
GACACCAC	0.367 ± 0.039
AGATAAAT	-0.202 ± 0.017
ACGGCAGC	0.0417 ± 0.0037
CGTAGTGA	-0.0348 ± 0.0029
ACATACTC	-0.0738 ± 0.027
AATGTAGC	-0.0814 ± 0.0015
GTCACTCA	0.185 ± 0.047
CAGGCGGA	-0.224 ± 0.12
TAAAGAGA	-0.0999 ± 0.018
ACTGCGTG	0.0105 ± 0.014
GCAATCTA	0.0376 ± 0.013
GCAGCTCA	0.052 ± 0.0014

Sequence	PBM E-score of 8-mer
CAGCGATC	0.0455 ± 0.057
TGATAACA	0.33 ± 0.025
GGAACGCC	0.177 ± 0.024
ACGGCCTG	-0.094 ± 0.0062
CCACCTGA	0.148 ± 0.02
AACACCGC	0.299 ± 0.018
AAAATCAA	-0.0885 ± 0.034
ATCACTAC	0.0564 ± 0.0073
TGTCTTAA	-0.0342 ± 0.045
AGTTCGGA	-0.17 ± 0.042
ATTTGCAA	-0.0431 ± 0.044
CTGGTCTC	-0.133 ± 0.035
GAACTGAC	-0.051 ± 0.017
GCAACCAC	0.0127 ± 0.092
ACCCATTG	-0.161 ± 0.036
ACGTTGCC	0.144 ± 0.019
CCACTAAA	-0.031 ± 0.016
ACAACGCA	0.114 ± 0.034
AGTTGGAG	-0.148 ± 0.075
CGCCTCAG	0.342 ± 0.011
ATTTGATC	-0.257 ± 0.038
AATACCCC	-0.256 ± 0.066

Sequence	PBM E-score of 8-mer
CCTAGAAC	-0.18 ± 0.034
CCTATCTA	-0.225 ± 0.03
AAAACCAG	0.0656 ± 0.013
ATGGAATA	-0.0847 ± 0.081
ATCCGTCG	-0.0129 ± 0.041
TAATCCCA	-0.1983 ± 0.00057
GATTGGAC	-0.0797 ± 0.038
AGCAACAA	0.1945 ± 0.00053
ACGGTGAT	0.115 ± 0.028
CAACGCGC	0.156 ± 0.019
AATATCTC	-0.0127 ± 0.0054
ATATTGCG	0.0678 ± 0.068
ACTCATTA	0.0559 ± 0.0024
ACAGAGCA	-0.249 ± 0.025
GTCCTCGA	-0.0351 ± 0.064
AGATGCGA	0.112 ± 0.032
CTCCGGGA	-0.21 ± 0.0071
CCAAGAGA	-0.235 ± 0.06
CATCTGCG	-0.0623 ± 0.075
AGTTGAAA	-0.136 ± 0.059
CGTTTTGA	-0.0628 ± 0.05
CCGACAAG	0.115 ± 0.018

Sequence	PBM E-score of 8-mer
ATATGTGA	0.242 ± 0.055
CCCTCTCC	-0.0898 ± 0.048
CCAGTGGA	-0.133 ± 0.022
CTTCACAC	0.4852 ± 0.00088
AGGTTCAA	-0.133 ± 0.055
ATAGTAGG	-0.15 ± 0.033
TACCTAAA	-0.0995 ± 0.054
GGGCGGAC	-0.0766 ± 0.012
CTGTGCGC	-0.147 ± 0.091
GTTGAAAC	0.0361 ± 0.01
TGGCACAA	0.187 ± 0.035
ATAACTGA	0.0983 ± 0.016
GAGTAATA	-0.134 ± 0.12
ACATTACT	0.0205 ± 0.034
AGACTCTC	-0.0738 ± 0.045
CCATTAAC	0.142 ± 0.06
TCGTGGAA	0.027 ± 0.11
AAGAAGCC	-0.0621 ± 0.039
CGAGATTA	0.142 ± 0.031
AGTTAGGC	-0.069 ± 0.049
